Results from the supplement of paper PMC12578646, “Prodrug florfenicol amine is activated by intrinsic resistance to target Mycobacterium abscessus” (Nature Microbiology, 2025).

Key:
Experiment in all cases: growth relative to untreated wells; higher = more growth (less inhibition)
[1] = test system: Mycobacterium abscessus ATCC 19977 Eis2 E120fs
Method: (§1)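 384-well two-fold dose series, two replicates; 5 days at 37 °C, then 24 h with resazurin; fluorescence scaled to growth and killed controls.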

[2] = test system: Mycobacterium abscessus ATCC 19977 Eis2 T258R
Method: as §1

[3] = test system: Mycobacterium abscessus ATCC 19977 Eis2 Y227D
Method: as §1

[4] = test system: Mycobacterium abscessus ATCC 19977 Eis2 Y255*
Method: as §1

[5] = test system: Mycobacterium abscessus ATCC 19977 Eis2 Y284*
Method: as §1

[6] = test system: Mycobacterium abscessus ATCC 19977 WhiB7 A51T
Method: as §1

[7] = test system: Mycobacterium abscessus ATCC 19977 WhiB7 F24fs
Method: as §1

[8] = test system: Mycobacterium abscessus ATCC 19977 WhiB7 L37P
Method: as §1

[9] = test system: Mycobacterium abscessus ATCC 19977 WhiB7 T70fs
Method: as §1

[10] = test system: Mycobacterium abscessus ATCC 19977 Δeis2
Method: as §1

[11] = test system: Mycobacterium abscessus ATCC 19977 ΔwhiB7
Method: as §1

[12] = test system: Mycobacterium abscessus ATCC 19977
Method: as §1

NCC[C@H](O)C(=O)N[C@@H]1C[C@H](N)[C@@H](O[C@H]2O[C@H](CN)[C@@H](O)[C@H](O)[C@H]2O)[C@H](O)[C@H]1O[C@H]1O[C@H](CO)[C@@H](O)[C@H](N)[C@H]1O [amikacin]
growth ([1]; 0.03125 µg/mL): 117 ± 2.8% | growth ([1]; 0.0625 µg/mL): 115 ± 6.2% | growth ([1]; 0.125 µg/mL): 124 ± 10% | growth ([1]; 0.25 µg/mL): 134 ± 3.5% | growth ([1]; 0.5 µg/mL): -0.202 ± 0.25% | growth ([1]; 1 µg/mL): -1.06 ± 0.33% | growth ([1]; 2 µg/mL): -1.36 ± 0.32% | growth ([1]; 4 µg/mL): -1.36 ± 0.43% | growth ([1]; 8 µg/mL): -1.75 ± 0.2% | growth ([1]; 16 µg/mL): -1.27 ± 0.84% | growth ([1]; 32 µg/mL): -1.05 ± 0.032% | growth ([1]; 64 µg/mL): 0.312 ± 0.37% | growth ([2]; 0.03125 µg/mL): 103 ± 9.9% | growth ([2]; 0.0625 µg/mL): 112 ± 9% | growth ([2]; 0.125 µg/mL): 119 ± 4.2% | growth ([2]; 0.25 µg/mL): 116 ± 14% | growth ([2]; 0.5 µg/mL): -0.893 ± 0.11% | growth ([2]; 1 µg/mL): -1.65 ± 0.41% | growth ([2]; 2 µg/mL): 4.88 ± 10% | growth ([2]; 4 µg/mL): -2.18 ± 0.3% | growth ([2]; 8 µg/mL): -2.55 ± 0.11% | growth ([2]; 16 µg/mL): -1.79 ± 0.17% | growth ([2]; 32 µg/mL): -1.72 ± 0.49% | growth ([2]; 64 µg/mL): -0.584 ± 0.017% | growth ([3]; 0.03125 µg/mL): 107 ± 12% | growth ([3]; 0.0625 µg/mL): 122.3 ± 0.053% | growth ([3]; 0.125 µg/mL): 121 ± 1.8% | growth ([3]; 0.25 µg/mL): 126.7 ± 0.62% | growth ([3]; 0.5 µg/mL): 14 ± 18% | growth ([3]; 1 µg/mL): 0.177 ± 0.04% | growth ([3]; 2 µg/mL): -0.831 ± 0.22% | growth ([3]; 4 µg/mL): -0.189 ± 0.65% | growth ([3]; 8 µg/mL): -0.623 ± 0.61% | growth ([3]; 16 µg/mL): 0.143 ± 0.28% | growth ([3]; 32 µg/mL): 0.135 ± 0.5% | growth ([3]; 64 µg/mL): 6.62 ± 7% | growth ([4]; 0.03125 µg/mL): 109 ± 11% | growth ([4]; 0.0625 µg/mL): 118 ± 2.4% | growth ([4]; 0.125 µg/mL): 126 ± 1.2% | growth ([4]; 0.25 µg/mL): 105 ± 31% | growth ([4]; 0.5 µg/mL): -2.09 ± 2.6% | growth ([4]; 1 µg/mL): -2.75 ± 2.6% | growth ([4]; 2 µg/mL): -3.15 ± 1.4% | growth ([4]; 4 µg/mL): -2.94 ± 2.1% | growth ([4]; 8 µg/mL): -3.51 ± 2% | growth ([4]; 16 µg/mL): -3.01 ± 2.2% | growth ([4]; 32 µg/mL): -2.75 ± 2.1% | growth ([4]; 64 µg/mL): -0.902 ± 2.2% | growth ([5]; 0.03125 µg/mL): 111 ± 2.8% | growth ([5]; 0.0625 µg/mL): 113 ± 6.1% | growth ([5]; 0.125 µg/mL): 121 ± 2.6% | growth ([5]; 0.25 µg/mL): 89.6 ± 37% | growth ([5]; 0.5 µg/mL): -1.02 ± 0.7% | growth ([5]; 1 µg/mL): -0.849 ± 0.27% | growth ([5]; 2 µg/mL): -1.87 ± 0.048% | growth ([5]; 4 µg/mL): -1.92 ± 0.28% | growth ([5]; 8 µg/mL): -2.21 ± 0.088% | growth ([5]; 16 µg/mL): -1.3 ± 0.38% | growth ([5]; 32 µg/mL): -1.28 ± 0.019% | growth ([5]; 64 µg/mL): 0.242 ± 0.1% | growth ([6]; 0.03125 µg/mL): 113 ± 6.3% | growth ([6]; 0.0625 µg/mL): 112 ± 5.7% | growth ([6]; 0.125 µg/mL): 112 ± 7.7% | growth ([6]; 0.25 µg/mL): 115 ± 8.9% | growth ([6]; 0.5 µg/mL): -0.848 ± 0.13% | growth ([6]; 1 µg/mL): -1.2 ± 1.3% | growth ([6]; 2 µg/mL): -1.35 ± 0.7% | growth ([6]; 4 µg/mL): -1.69 ± 0.7% | growth ([6]; 8 µg/mL): -2.05 ± 0.73% | growth ([6]; 16 µg/mL): -0.73 ± 0.78% | growth ([6]; 32 µg/mL): -0.821 ± 0.17% | growth ([6]; 64 µg/mL): 0.722 ± 0.61% | growth ([7]; 0.03125 µg/mL): 110 ± 2.5% | growth ([7]; 0.0625 µg/mL): 120 ± 3% | growth ([7]; 0.125 µg/mL): 123 ± 2.8% | growth ([7]; 0.25 µg/mL): 123 ± 3.3% | growth ([7]; 0.5 µg/mL): -0.812 ± 0.4% | growth ([7]; 1 µg/mL): -1.18 ± 0.041% | growth ([7]; 2 µg/mL): -1.25 ± 0.22% | growth ([7]; 4 µg/mL): -1.92 ± 0.37% | growth ([7]; 8 µg/mL): -1.56 ± 0.29% | growth ([7]; 16 µg/mL): -1.29 ± 0.25% | growth ([7]; 32 µg/mL): -0.997 ± 0.1% | growth ([7]; 64 µg/mL): 1 ± 0.24% | growth ([8]; 0.03125 µg/mL): 104 ± 1.7% | growth ([8]; 0.0625 µg/mL): 114 ± 16% | growth ([8]; 0.125 µg/mL): 124 ± 2.6% | growth ([8]; 0.25 µg/mL): 127.3 ± 0.66% | growth ([8]; 0.5 µg/mL): -0.63 ± 0.47% | growth ([8]; 1 µg/mL): -1.24 ± 0.48% | growth ([8]; 2 µg/mL): -1.34 ± 0.3% | growth ([8]; 4 µg/mL): -1.5 ± 0.32% | growth ([8]; 8 µg/mL): -1.73 ± 0.58% | growth ([8]; 16 µg/mL): -0.8 ± 0.0099% | growth ([8]; 32 µg/mL): -0.379 ± 0.26% | growth ([8]; 64 µg/mL): 0.668 ± 0.25% | growth ([9]; 0.03125 µg/mL): 102 ± 7.8% | growth ([9]; 0.0625 µg/mL): 117 ± 4.8% | growth ([9]; 0.125 µg/mL): 115.8 ± 0.32% | growth ([9]; 0.25 µg/mL): 120 ± 3.1% | growth ([9]; 0.5 µg/mL): -2.54 ± 0.42% | growth ([9]; 1 µg/mL): -3.66 ± 1.4% | growth ([9]; 2 µg/mL): -3.93 ± 0.79% | growth ([9]; 4 µg/mL): -3.7 ± 0.86% | growth ([9]; 8 µg/mL): -4.05 ± 1.2% | growth ([9]; 16 µg/mL): -3.94 ± 0.97% | growth ([9]; 32 µg/mL): -3.04 ± 0.91% | growth ([9]; 64 µg/mL): -1.74 ± 0.58% | growth ([10]; 0.03125 µg/mL): 104.9 ± 0.26% | growth ([10]; 0.0625 µg/mL): 108 ± 5% | growth ([10]; 0.125 µg/mL): 115 ± 1.5% | growth ([10]; 0.25 µg/mL): 82.5 ± 69% | growth ([10]; 0.5 µg/mL): -1.28 ± 0.75% | growth ([10]; 1 µg/mL): -1.64 ± 0.41% | growth ([10]; 2 µg/mL): -2.12 ± 0.69% | growth ([10]; 4 µg/mL): -1.82 ± 0.052% | growth ([10]; 8 µg/mL): -2.39 ± 0.31% | growth ([10]; 16 µg/mL): -1.6478 ± 0.00014% | growth ([10]; 32 µg/mL): -1.76 ± 0.31% | growth ([10]; 64 µg/mL): -0.303 ± 0.49% | growth ([11]; 0.03125 µg/mL): 111 ± 6.6% | growth ([11]; 0.0625 µg/mL): 114 ± 7% | growth ([11]; 0.125 µg/mL): 153.3 ± 1% | growth ([11]; 0.25 µg/mL): 52.1 ± 46% | growth ([11]; 0.5 µg/mL): -2.82 ± 4.3% | growth ([11]; 1 µg/mL): -3.31 ± 4.8% | growth ([11]; 2 µg/mL): -3.62 ± 4.3% | growth ([11]; 4 µg/mL): 0.603 ± 1.7% | growth ([11]; 8 µg/mL): -2.92 ± 6.2% | growth ([11]; 16 µg/mL): -3.51 ± 4.5% | growth ([11]; 32 µg/mL): -2.78 ± 4.4% | growth ([11]; 64 µg/mL): -1.56 ± 4.3% | growth ([12]; 0.03125 µg/mL): 108 ± 4.2% | growth ([12]; 0.0625 µg/mL): 115 ± 1.5% | growth ([12]; 0.125 µg/mL): 116 ± 1.9% | growth ([12]; 0.25 µg/mL): 122.6 ± 0.87% | growth ([12]; 0.5 µg/mL): 124 ± 5.8% | growth ([12]; 1 µg/mL): 56.7 ± 49% | growth ([12]; 2 µg/mL): -0.405 ± 0.14% | growth ([12]; 4 µg/mL): -1.13 ± 0.95% | growth ([12]; 8 µg/mL): -1.56 ± 0.68% | growth ([12]; 16 µg/mL): -0.994 ± 1.4% | growth ([12]; 32 µg/mL): -0.0558 ± 0.027% | growth ([12]; 64 µg/mL): 0.809 ± 1.1%

± gives the standard deviation of the averaged measurements. M. abscessus ATCC 19977 and its deletion, point and complemented mutants after 5 days of drug at 37 °C plus 24 h of resazurin. Growth in % of untreated wells at the dose given (lower = more inhibition); checkerboards give % inhibition (higher = more inhibition); IC50 from the fitted curve (lower = more potent). No active / inactive call. IC50 values come from the same 384-well curves. Growth is not capped and can exceed 100%. The direction of the checkerboard scale is read from the raw signals. Capreomycin is a mixture.
